# Source: PubChem BioAssay AID624418 (National Center for Advancing Translational Sciences (NCATS), 2012)
# About 530 (0.13%) of roughly 410,000 compounds were called active. The inconclusive results got no clear call from the source; some entries with a clear call stand among them for comparison. Calls follow the shape of the dose curve; as a rule, active = well fitted inhibition curve with a large enough effect; inconclusive = small, poorly fitted or top-dose-only effect, or another doubt; inactive = no such curve, though single readings can be large or run the other way. Where the call is inconclusive, the potency comes from a doubtful curve fit.
# Assay: qHTS of GLP-1 Receptor Inverse Agonists: Cytotox Screen
# Conditions: HEK293 cAMP-luciferase reporter cells, luminescence, 24 h; activity change, negative = inhibition: at 38.3 µM (top of the series) unless noted
# Summary of the method: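 Seeding density was 200 cells/uL; after overnight-length (12 h) culture, 23 nL compounds went on for 24 h at 37 °C. Readout used a luciferase detection reagent, luminescence taken after 12 min at room temperature.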
# % is scaled to controls: 0 for no effect and ±100 for the full control effect; potency is read from the fitted curve at half-maximal effect.
SMILES,Potency,"activity change, negative = inhibition"
Cc1ccc2nc(N(CCCN(C)C)C(=O)c3ccco3)sc2c1,"inconclusive: 5.62 µM [inhibitor, full curve, poor fit]",
C=CC[C@H](CC(=O)N(CCO)Cc1ccccc1)C(=O)N[C@@H](C)COC(=O)[C@@H](CC=C)Cc1ccc(F)cc1,"inconclusive: 20 µM [inhibitor, single point]",
O=C(N/N=C/c1ccc[nH]1)c1ccc(COc2cccc3cccnc23)cc1,"inconclusive: 1.78 µM [inhibitor, full curve, poor fit]",
COc1ccccc1C(=O)Nc1ccnn1C1CCN(CCCC2CCCC2)CC1,"inconclusive: 11.2 µM [inhibitor, single point]",
Cc1ccc(NC(=O)/C(=C\c2cccc([N+](=O)[O-])c2)NC(=O)c2cccs2)cc1,inactive,
CCSc1ncc(/C=N/Nc2ccccc2)n1C,"inconclusive: 10 µM [inhibitor, partial curve, poor fit]",
COc1ccc(NC(=O)c2nc(C)c(C3(C)CC(c4ccccc4)=NO3)s2)cc1 (stereo not drawn),"inconclusive: 2.51 µM [inhibitor, full curve]",
CC(/C=C1\SC(=S)N(NC(=O)c2ccncc2)C1=O)=C\c1ccccc1,"inconclusive: 25.1 µM [inhibitor, single point]",
O=C(CN(Cc1ccccc1Cl)C(=O)CCC(=O)Nc1nccs1)NCC1CCCO1 (stereo not drawn),inactive,
COCCN=C1N[C@@H](c2cccc(C(F)(F)F)c2)C(C(=O)OC)=C(C)N1Cc1ccccc1,"inconclusive: 5.01 µM [inhibitor, partial curve]",
CC(C)Sc1nc(SCC(=O)NCc2ccco2)c2c3c(sc2n1)COC(C)(C)C3,"inconclusive: 11.2 µM [inhibitor, single point]",
CCc1ccc(S(=O)(=O)/N=C2\C=C(NS(=O)(=O)c3ccccc3)C(=O)c3ccccc32)cc1,"inconclusive: 6.31 µM [inhibitor, partial curve, poor fit]",
CCN(CC)CCNC(=S)Nc1ccc2nc(N3CCN(C)CC3)cc(C)c2c1,"inconclusive: 2.82 µM [inhibitor, partial curve, poor fit]",
C/C(=N\NC(=O)c1ccn(C)n1)c1cccc(NC(=O)c2ccc(C)s2)c1,,inactive: 0.525% [at 1.53 µM]
CCOC(=O)N1CCN(Cc2nc3cc(NC(=O)CC)ccc3n2C(C)C)CC1,"inconclusive: 1.78 µM [inhibitor, full curve, poor fit]",
CC(C)c1ccccc1NC(=S)NC1CCN(Cc2ccccc2)CC1,"inconclusive: 10 µM [inhibitor, single point]",
CSc1cccc(NC(=S)N(CCCN2CCCC2)Cc2cccn2Cc2ccc(Cl)cc2)c1,active: 11.2 µM,
COc1cccc(C(=O)Nc2ccc(Oc3cccc(C(F)(F)F)c3)nc2)c1,"inconclusive: 11.2 µM [inhibitor, partial curve, poor fit]",
O=S(=O)(Cc1cc(Cl)nc(-c2ccncc2)n1)c1ccccc1,"inconclusive: 28.2 µM [inhibitor, single point]",

SMILES,Potency,"activity change, negative = inhibition"
Cc1ccc(C)c(NC(=O)CSc2nc(=O)n(CCN3CCOCC3)c3c2CCC3)c1,inactive,
COc1ccc(CCN2C(=O)C=CC2=O)cc1OC,"inconclusive: 14.1 µM [inhibitor, single point]",
CC(=O)Nc1cccc(C(=O)/C=C/c2ccc(F)cc2)c1,"inconclusive: 20 µM [inhibitor, single point]",
Cc1c(C(=O)N(Cc2ccccc2)Cc2cccs2)cnn1-c1ccc(Cl)cc1,"inconclusive: 8.91 µM [inhibitor, partial curve]",
O=C1C=C(Nc2ccccc2C(=O)O)c2ccccc2C1=O,"inconclusive: 10 µM [inhibitor, partial curve]",
O=C(NC(=S)Nc1ccccc1Br)C1CC1,"inconclusive: 11.2 µM [inhibitor, partial curve]",
CNC(=S)N/N=C(\C)c1ccc2c(c1)OCO2,"inconclusive: 7.94 µM [inhibitor, partial curve, poor fit]",
CCOC(=O)c1ccc(N2C(=O)c3[nH]nc(-c4ccc(C)cc4)c3C2c2ccc(O)cc2)cc1 (stereo not drawn),"inconclusive: 11.2 µM [inhibitor, single point]",
Cc1ccc(-n2nc3c(N4CCC(C(=O)NCCc5ccco5)CC4)nnc(C)c3c2C)cc1,"inconclusive: 28.2 µM [inhibitor, single point]",
CCCc1oc2ccc(NS(=O)(=O)c3ccc(OCC)cc3)cc2c1C(=O)OCC,"inconclusive: 3.16 µM [inhibitor, full curve]",
COc1cccc(-c2cc(=O)c3cc(NC(=O)c4ccc(N(C)C)cc4)ccc3[nH]2)c1,"inconclusive: 2.24 µM [inhibitor, partial curve, poor fit]",
CC(C)COc1ccc(C(=O)N/C(=C\c2cccc([N+](=O)[O-])c2)C(=O)OC(C)C)cc1,"inconclusive: 31.6 µM [inhibitor, partial curve, poor fit]",
CCc1ccc(OCC(=O)NC(NC(=S)Nc2ccc(C)cc2C)C(Cl)(Cl)Cl)cc1 (stereo not drawn),"inconclusive: 15.8 µM [inhibitor, single point]",
COc1ccccc1C(=O)C1CCCN(C(=O)c2ccccc2Cl)C1 (stereo not drawn),"inconclusive: 31.6 µM [inhibitor, single point]",
CS(=O)(=O)c1ncc(Cl)c(C(=O)N2CCN(c3cccc(Cl)c3)CC2)n1,"inconclusive: 8.91 µM [inhibitor, partial curve, poor fit]",
CCC(C)[C@@H](C(=O)Nc1ccc(OC)c(OC)c1)N1Cc2ccccc2C1=O (stereo partly drawn),"inconclusive: 10 µM [inhibitor, single point]",
COc1ccc(C(=O)c2cc([N+](=O)[O-])ccc2N2CCN(C)CC2)cc1,"inconclusive: 8.91 µM [inhibitor, partial curve, poor fit]",
O=C(N/N=C/C(Cl)=C/c1ccccc1)c1ccccc1F,inactive,
Cc1ccc2c(c1)C1CN(C)CCC1N2S(=O)(=O)c1cccc(C(F)(F)F)c1 (stereo not drawn),"inconclusive: 12.6 µM [inhibitor, single point]",
